Some of the results follow. The exact form of the protein is not confirmed.

The target in the experiment is GST-SBP-ILF3 (Homo sapiens) (UniProt Q12906). Kind of experiment: targeted RNA Bind-n-Seq. The note with it: RBNS binding buffer: 25 mM Tris pH 7.5, 150 mM KCl, 3 mM MgCl2, 0.1% Tween, 0.5 mg/mL BSA, 1 mM DTT; 27 nM protein, 750 pM RNA pool; temperature not stated; high values mean tight binding; sequences stand for … in GGGUAAAAGCGAGGUGAA…CGGGACAAGUAUUAUGGG
Consider “UUUUUUUUUUGAGAUGGGGUCUAUCUUCUA [tttttgagapaired]”, for which the binding signal (log2 fold change) came to 0.314.

“UUUUUUUUUUGAGACUGGAUCAGUCUUCUG [tttttgagapaired]”: the binding signal (log2 fold change) was 0.357.

Turning to “UUUUUUUUUUGAGAGCGAAGCGCUCUCCUA [tttttgagapaired]”, the binding signal (log2 fold change) was -0.0954.

As to “UUUUUUUUUUGAGACGGAGUCUGUUUCCUA [tttttgagapaired]”, the binding signal (log2 fold change) worked out at 0.194.

Regarding “GUGGUUGGUGUUGGCCUCUAACACCAACUA [gtspaired]”, the binding signal (log2 fold change) is -0.676.

As to “UUUUUUUUUUGAGACGGUUUCCGUCUUCUA [tttttgagapaired]”, the binding signal (log2 fold change) stood at 0.0504.

In the case of “GUGUGUGGUGUUGGAUCCUAACACCACGCG [gtspaired]”, the binding signal (log2 fold change) was -0.799.

For the sequence “UUUUUUUUUUGAGACGGGAACUGUCUUCUG [tttttgagapaired]”, the binding signal (log2 fold change) was found to be 0.955.

As for “UUUUUUUUUUGAGAGGGCUGCCCUCUCCAG [tttttgagapaired]”, the binding signal (log2 fold change) amounted to 1.06.

Take “UUUUUUUUUUGAGACUGAGGCAGUUUUCUA [tttttgagapaired]”: the binding signal (log2 fold change) is 0.315.

Take “UUUUUUUUUUGAGAGGGAGACCCUCUCCGG [tttttgagapaired]”: the binding signal (log2 fold change) turned out to be 0.242.

As to “UUUUUUUUUUGAGAGGGUCCCCCUCUCCUA [tttttgagapaired]”, the binding signal (log2 fold change) is 0.309.

As for “GUUGUGUGUGUUGGCUCCUAACACACACAG [gtspaired]”, the binding signal (log2 fold change) is -0.632.

Consider “UUUUUUUUUUGAGAGUGUAACAUUCUCCUA [tttttgagapaired]”, for which the binding signal (log2 fold change) is -0.0216.

On to “UUUUUUUUUUGAGAUGGUAGCCAUCUCCGG [tttttgagapaired]”, for which the binding signal (log2 fold change) amounted to 0.381.

For the sequence “UUUUUUUUUUGAGACCGGAUCGGUUUCCAG [tttttgagapaired]”, the binding signal (log2 fold change) stood at 0.514.

“GUGUGUUGUGUUGGUAUCUAACACAGCACG [gtspaired]”: the binding signal (log2 fold change) was -0.901.

Consider “UUUUUUUUUUGAGACUGUGUCAGUUUCCGG [tttttgagapaired]”, for which the binding signal (log2 fold change) is 0.931.

For the sequence “UUUUUUUUUUGAGAACAAUGUAAUAAAAAA [ttttgagaunpaired]”, the binding signal (log2 fold change) is -0.486.

Consider “GUGUGGUGUGUUGGUUCCUAACACACUACG [gtspaired]”, for which the binding signal (log2 fold change) is -0.589.

Take “UUUUUUUUUUGAGACUGUAACAGUCUUCUA [tttttgagapaired]”: the binding signal (log2 fold change) turned out to be 0.41.

As for “UUUUUUUUUUGAGACUGUAUCAGUUUCCGG [tttttgagapaired]”, the binding signal (log2 fold change) came to 0.439.

In the case of “GUGGUGUGUGUUGGCUCCUAACACAUACCA [gtspaired]”, the binding signal (log2 fold change) is -0.125.

As to “UUUUUUUUUUGAGAUGGCCGCCAUCUCCUG [tttttgagapaired]”, the binding signal (log2 fold change) was determined as 0.896.

Turning to “GUGUGGUGUGUUGGAAUCUAACACAUCACG [gtspaired]”, the binding signal (log2 fold change) was -0.687.

As to “UUUUUUUUUUGAGAGGGCGGCCCUCUCCUA [tttttgagapaired]”, the binding signal (log2 fold change) is 0.946.

Take “GUGUGUGGUGUUGGCACCUAACACCACGCA [gtspaired]”: the binding signal (log2 fold change) was -0.245.

For the sequence “GUUGGUGGUGUUGGUCCCUAACACCACCAG [gtspaired]”, the binding signal (log2 fold change) was -0.294.

Take “GUGUGUGGUGUUGGCAUCUAACACCGCAUA [gtspaired]”: the binding signal (log2 fold change) is -0.683.

“UUUUUUUUUUGAGACUGCGGCAGUCUUCUA [tttttgagapaired]”: the binding signal (log2 fold change) is 0.532.

For “UUUUUUUUUUGAGAGGGAUCCCCUCUUCUG [tttttgagapaired]”, the binding signal (log2 fold change) worked out at 0.126.

Regarding “UUUUUUUUUUGAGAGCGUGACGUUCUUCUA [tttttgagapaired]”, the binding signal (log2 fold change) worked out at 0.531.

As to “UUUUUUUUUUGAGAGGGUAUCCCUCUUCUG [tttttgagapaired]”, the binding signal (log2 fold change) was 0.323.

Take “UUUUUUUUUUGAGAUGGAAACUAUCUUCUA [tttttgagapaired]”: the binding signal (log2 fold change) was found to be 0.0871.

Regarding “GGUGGUUGUGUUGGCUUCUAACACAAUCGC [gtspaired]”, the binding signal (log2 fold change) was -0.131.

In the case of “UUUUUUUUUUGAGACGGGAUCCGUUUCCGG [tttttgagapaired]”, the binding signal (log2 fold change) worked out at 0.544.

“UUUUUUUUUUGAGACGGAGACCGUUUCCAG [tttttgagapaired]”: the binding signal (log2 fold change) worked out at 0.774.

As to “UUUUUUUUUUGAGACCGAGGCGGUUUCCUA [tttttgagapaired]”, the binding signal (log2 fold change) worked out at 0.758.

Regarding “UUUUUUUUUUGAGAGCGGAUCGCUCUCCGG [tttttgagapaired]”, the binding signal (log2 fold change) is 0.381.

Consider “UUUUUUUUUUGAGACUGAGGCAGUCUUCUG [tttttgagapaired]”, for which the binding signal (log2 fold change) worked out at 0.587.

On to “GGUUGUGGUGUUGGCGCCUAACACCAUAAC [gtspaired]”, for which the binding signal (log2 fold change) is -0.208.

For “UUUUUUUUUUGAGAUCGGGACGAUCUUCUG [tttttgagapaired]”, the binding signal (log2 fold change) was 0.534.

As to “UUUUUUUUUUGAGACUGAACCAGUUUCCAG [tttttgagapaired]”, the binding signal (log2 fold change) was -0.0501.

For the sequence “UUCUCUCUUCCUCCAGUGGAGGAGGGGAGA [ctspaired]”, the binding signal (log2 fold change) was -0.596.

For the sequence “UUUUUUUUUUGAGAACGACACGUUCUCCGG [tttttgagapaired]”, the binding signal (log2 fold change) came to 0.116.

Regarding “UUUUUUUUUUGAGAUCGAAGCGAUUUCCGG [tttttgagapaired]”, the binding signal (log2 fold change) amounted to 0.533.

For “UUUUUUUUUUGAGACUGUGACAGUCUUCUG [tttttgagapaired]”, the binding signal (log2 fold change) came out at 0.712.

On to “UUUUUUUUUUGAGACUGCGGCAGUCUCCUG [tttttgagapaired]”, for which the binding signal (log2 fold change) amounted to 0.681.

Regarding “GUGUGUUGUGUUGGACUCUAACACAGCACA [gtspaired]”, the binding signal (log2 fold change) was -0.694.

“GGUGUGUGUGUUGGCCCCUAACACAUAUAC [gtspaired]”: the binding signal (log2 fold change) was -0.3.

Take “GGUUGUGGUGUUGGAAUCUAACACCGCGAC [gtspaired]”: the binding signal (log2 fold change) was -0.473.

As to “GUGUGGUGUGUUGGCCCCUAACACACCGCG [gtspaired]”, the binding signal (log2 fold change) is -0.116.

As to “UUUUUUUUUUGAGACUGCGACAGUUUUCUA [tttttgagapaired]”, the binding signal (log2 fold change) is 0.283.

With “GUGUGUGGUGUUGGUCCCUAACACCGCGCA [gtspaired]”, the binding signal (log2 fold change) was -0.753.

“UUUUUUUUUUGAGAUGGAGGCCAUCUCCUA [tttttgagapaired]”: the binding signal (log2 fold change) is 0.134.

In the case of “GUGUGUGGUGUUGGCGUCUAACACCAUACA [gtspaired]”, the binding signal (log2 fold change) was -0.424.

“GGUGGUGGUGUUGGAGUCUAACACCGCUAC [gtspaired]”: the binding signal (log2 fold change) was -0.474.

As for “UUUUUUUUUUGAGACUGAAACAGUUUUCUA [tttttgagapaired]”, the binding signal (log2 fold change) is -0.298.

Turning to “UUUUUUUUUUGAGAGCGUGACGCUCUCCUA [tttttgagapaired]”, the binding signal (log2 fold change) was 0.217.

Take “UUUUUUUUUUGAGACGGAGCCCGUCUCCAG [tttttgagapaired]”: the binding signal (log2 fold change) stood at 0.478.

Turning to “GUGGUGUGUGUUGGUUCCUAACACAUACCA [gtspaired]”, the binding signal (log2 fold change) is -0.919.

On to “UUUUUUUUUUGAGAGGGUCUCCCUCUUCUA [tttttgagapaired]”, for which the binding signal (log2 fold change) turned out to be 0.465.

In the case of “GUGUGUUGUGUUGGUGCCUAACACAGCGCG [gtspaired]”, the binding signal (log2 fold change) is -0.57.

For “UUUUUUUUUUGAGACGGAAUCUGUUUCCAG [tttttgagapaired]”, the binding signal (log2 fold change) is 0.308.

For the sequence “UUUUUUUUUUGAGAGGGACUCCCUCUCCUA [tttttgagapaired]”, the binding signal (log2 fold change) turned out to be 0.528.

“UUUUUUUUUUGAGAGUGUAUCAUUCUCCUA [tttttgagapaired]”: the binding signal (log2 fold change) is -0.237.

Regarding “UUUUUUUUUUGAGACUGGCGCAGUCUCCAG [tttttgagapaired]”, the binding signal (log2 fold change) is 0.651.

Take “UUUUUUUUUUGAGAGCGGACCGCUCUUCUA [tttttgagapaired]”: the binding signal (log2 fold change) is 0.408.

As to “GUGUGUUGUGUUGGAUUCUAACACAGCACG [gtspaired]”, the binding signal (log2 fold change) is -0.667.

Regarding “GUGUGUGGUGUUGGACUCUAACACCGCAUA [gtspaired]”, the binding signal (log2 fold change) is -0.727.

“GGUGUGUGUGUUGGCCCCUAACACACGCGC [gtspaired]”: the binding signal (log2 fold change) is -0.0102.

With “GUGGUUGGUGUUGGAAUCUAACACCGACCG [gtspaired]”, the binding signal (log2 fold change) was -0.42.

On to “UUUUUUUUUUGAGAGUGGUCCAUUCUCCGG [tttttgagapaired]”, for which the binding signal (log2 fold change) was determined as 0.586.

Take “UUUUUUUUUUGAGAUGGUAGCUAUCUCCAG [tttttgagapaired]”: the binding signal (log2 fold change) was 0.441.

As to “GUGUGGUGUGUUGGCGUCUAACACACUACG [gtspaired]”, the binding signal (log2 fold change) is -0.513.

As for “GGUUGGUGUGUUGGUGCCUAACACAUCAGC [gtspaired]”, the binding signal (log2 fold change) is -0.773.

In the case of “UUUUUUUUUUGAGACUGCAACAGUCUCCGG [tttttgagapaired]”, the binding signal (log2 fold change) turned out to be 0.329.

Consider “UUUUUUUUUUGAGAUGGAAGCUAUCUCCGG [tttttgagapaired]”, for which the binding signal (log2 fold change) amounted to 0.207.

As for “UUUUUUUUUUGAGACCGGGACGGUCUCCUA [tttttgagapaired]”, the binding signal (log2 fold change) came to 0.655.

“UUUUUUUUUUGAGAGCGACGCGCUCUCCGG [tttttgagapaired]”: the binding signal (log2 fold change) was 0.314.

In the case of “GGUGUGUGUGUUGGACCCUAACACACGCGC [gtspaired]”, the binding signal (log2 fold change) is -0.254.

Consider “UUUUUUUUUUGAGAGUGUAACACUCUUCUA [tttttgagapaired]”, for which the binding signal (log2 fold change) was -0.0559.

As to “UUUUUUUUUUGAGAGGGCAUCCCUCUCCUG [tttttgagapaired]”, the binding signal (log2 fold change) came to 0.607.

For “GUGGUUGGUGUUGGCGCCUAACACCGACCA [gtspaired]”, the binding signal (log2 fold change) was -0.14.

In the case of “UUUUUUUUUUGAGACUGGAACAGUUUCCUA [tttttgagapaired]”, the binding signal (log2 fold change) is 0.264.

For the sequence “UUUUUUUUUUGAGAGCGUGCCGCUCUCCUA [tttttgagapaired]”, the binding signal (log2 fold change) worked out at 0.894.

Consider “GUGUGUGGUGUUGGAUCCUAACACCGCGCA [gtspaired]”, for which the binding signal (log2 fold change) is -0.391.

Regarding “UUUUUUUUUUGAGACCGAAGCGGUCUCCUA [tttttgagapaired]”, the binding signal (log2 fold change) turned out to be 0.827.

With “UUUUUUUUUUGAGAUCGAUCCGAUCUCCUG [tttttgagapaired]”, the binding signal (log2 fold change) came out at 0.00429.

“UUUUUUUUUUGAGAGCGACGCGCUCUCCAG [tttttgagapaired]”: the binding signal (log2 fold change) came out at 0.333.

Turning to “GUGGUGUGUGUUGGCGCCUAACACAUACCA [gtspaired]”, the binding signal (log2 fold change) is -0.222.

With “GGUGUUGGUGUUGGUCCCUAACACCAAUAC [gtspaired]”, the binding signal (log2 fold change) was -0.523.

Consider “UUUUUUUUUUGAGAUGGUUCCCAUCUCCGG [tttttgagapaired]”, for which the binding signal (log2 fold change) is 0.284.

In the case of “GUGGUUGGUGUUGGCAUCUAACACCGACCG [gtspaired]”, the binding signal (log2 fold change) was -0.735.

For the sequence “GUGUGGUGUGUUGGCCCCUAACACACCGCA [gtspaired]”, the binding signal (log2 fold change) is -0.335.

On to “GGUGGUUGUGUUGGUCCCUAACACAAUCGC [gtspaired]”, for which the binding signal (log2 fold change) was -0.684.

Take “UUUUUUUUUUGAGAUGGUAUCCAUUUCCAG [tttttgagapaired]”: the binding signal (log2 fold change) is 0.0634.

With “UUUUUUUUUUGAGACGGCUGCCGUCUCCGG [tttttgagapaired]”, the binding signal (log2 fold change) worked out at 0.818.

For the sequence “GUGUGGUGUGUUGGCGCCUAACACACCGCG [gtspaired]”, the binding signal (log2 fold change) was -0.599.

As to “GUGUGUGGUGUUGGUCCCUAACACCGCACA [gtspaired]”, the binding signal (log2 fold change) was -0.13.

Consider “GUGGUGUGUGUUGGCACCUAACACAUACCA [gtspaired]”, for which the binding signal (log2 fold change) is -0.725.

“GUGGUUGGUGUUGGCACCUAACACCAGCCA [gtspaired]”: the binding signal (log2 fold change) is -0.653.

“GUGUGUUGUGUUGGAUCCUAACACAGCGCA [gtspaired]”: the binding signal (log2 fold change) was -0.62.
